For the experiment, the system named is NCI-H1944. Description: normalised cell viability (NPI; 0 = phenylarsine oxide control, 1 = DMSO control) (fraction of DMSO control); NCI-H1944 is a non-small cell lung cancer line; higher = more viable cells (less compound toxicity). The settings on record: 6 days.
[1] abbreviates: glucocorticoid arm: hydrocortisone 2.75 uM co-treatment, compound 1 µM.
Setting [2] is: glucocorticoid arm: hydrocortisone 2.75 uM co-treatment, compound 5 µM.
The mark [3] stands for this setting: glucocorticoid arm: hydrocortisone 2.75 uM pre-treated 2 days and continued, compound 1 µM.
[4] abbreviates: glucocorticoid arm: hydrocortisone 2.75 uM pre-treated 2 days and continued, compound 5 µM.
The mark [5] stands for this setting: glucocorticoid arm: vehicle, compound 1 µM.
[6] abbreviates: glucocorticoid arm: vehicle, compound 5 µM.

SMILES strings stand for the structures. Counter-ions that a name gives are not always drawn. ± gives the standard deviation of the averaged measurements. The full ranking holds about 1,900 compounds; the median of “normalised cell viability (NPI; 0 = phenylarsine oxide control, 1 = DMSO control)” is about 1, and the lowest 2% start at about 0.039. The list shows a part of the results.
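Also: CTB read-out in 384-well plates, mean of triplicate wells, normalised per plate against 1 µM phenylarsine oxide and 0.1% DMSO, compounds added 24 h after seeding.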

Consider `CC(=O)NCCc1c[nH]c2ccc(O)cc12` [N-Acetyl-5-hydroxytryptamine], for which the normalised cell viability was found to be 0.993 ± 0.001 under setting [1]; 0.998 ± 0.014 under setting [2]; 0.873 ± 0.23 under setting [3]; 1.01 ± 0.025 under setting [4]; 1.013 ± 0.0058 under setting [5]; 0.9967 ± 0.0031 under setting [6].
Take `O=c1ccc2ccc(O)c(O)c2o1` [Daphnetin]: the normalised cell viability came out at 0.991 ± 0.0082 under setting [1]; 0.968 ± 0.017 under setting [2]; 0.9823 ± 0.0031 under setting [3]; 0.956 ± 0.038 under setting [4]; 0.992 ± 0.0092 under setting [5]; 0.991 ± 0.007 under setting [6].
As for `Nc1ccc(-c2nc3ccc(-c4nc5ccc(N)cc5[nH]4)cc3[nH]2)cc1`, the normalised cell viability under setting [1] was found to be 1.003 ± 0.0058; the normalised cell viability under setting [2] is 1.01 ± 0.011; the normalised cell viability under setting [3] worked out at 1.02; the normalised cell viability under setting [4] amounted to 1.06 ± 0.01; the normalised cell viability under setting [5] was determined as 0.9897 ± 0.0047; the normalised cell viability under setting [6] was 1 ± 0.0095.
With `C=CC(=O)Nc1cccc(Nc2nc(Nc3ccc(N4CCN(C(C)=O)CC4)cc3OC)ncc2C(F)(F)F)c1`, the normalised cell viability by setting is: under setting [1], 0.877 ± 0.032; under setting [2], 0.525 ± 0.011; under setting [3], 0.867 ± 0.014; under setting [4], 0.518 ± 0.081; under setting [5], 0.972 ± 0.013; under setting [6], 0.484 ± 0.096.
On to `CS(=O)(=O)CCNCc1ccc(-c2ccc3ncnc(Nc4ccc(OCc5cccc(F)c5)c(Cl)c4)c3c2)o1` [Lapatinib Ditosylate (Tykerb)], for which the normalised cell viability came out at 0.945 ± 0.0092 under setting [1]; 0.916 ± 0.017 under setting [2]; 0.981 ± 0.021 under setting [3]; 0.938 ± 0.028 under setting [4]; 0.911 ± 0.02 under setting [5]; 0.868 ± 0.022 under setting [6].
For the compound `CS(=O)(=O)CCNCc1ccc(-c2ccc3ncnc(Nc4ccc(OCc5cccc(F)c5)c(Cl)c4)c3c2)o1` [Lapatinib ditosylate; Lapatinib; Lapatinib Ditosylate], the normalised cell viability runs as follows: under setting [1], 0.9643 ± 0.0055; under setting [2], 0.00258 ± 0.00055; under setting [3], 0.968 ± 0.014; under setting [4], 0.0327 ± 0.0022; under setting [5], 0.947 ± 0.0092; under setting [6], 0.00168 ± 0.00026.
Consider `CN1CCc2ccccc2Cc2[nH]c3ccccc3c2CC1`, for which the normalised cell viability reads like this: under setting [1], 1; under setting [2], 1.03 ± 0.035; under setting [3], 1.007 ± 0.0058; under setting [4], 1.01 ± 0.019; under setting [5], 0.984 ± 0.0044; under setting [6], 1 ± 0.017.
With `FC(F)(F)c1cc(COC2CCCNC2c2ccccc2)cc(C(F)(F)F)c1` [L-733,060 hydrochloride], the normalised cell viability is 0.9863 ± 0.0067 under setting [1]; 0.843 ± 0.034 under setting [2]; 1 ± 0.014 under setting [3]; 0.993 ± 0.076 under setting [4]; 0.9957 ± 0.0067 under setting [5]; 0.928 ± 0.076 under setting [6].
For the compound `NC(=O)C(=O)O` [Sodium Oxamate], the normalised cell viability came out at 0.9883 ± 0.007 under setting [1]; 0.987 ± 0.02 under setting [2]; 1.01 ± 0.013 under setting [3]; 1.01 ± 0.088 under setting [4]; 1.013 ± 0.0058 under setting [5]; 1 ± 0.012 under setting [6].
For `COc1cc(Cc2cnc(N)nc2N)cc(OC)c1OC` [Trimethoprim], the normalised cell viability was 1.013 ± 0.0058 under setting [1]; 1.01 ± 0.015 under setting [2]; 1.01 ± 0.023 under setting [3]; 1.03 ± 0.015 under setting [4]; 1.013 ± 0.0058 under setting [5]; 1.013 ± 0.0058 under setting [6].
`CN(C)c1cc2c(Nc3ccc4c(cnn4Cc4ccccc4)c3)ncnc2cn1`: the normalised cell viability reads like this: under setting [1], 0.979 ± 0.012; under setting [2], 1.02 ± 0.016; under setting [3], 1.01 ± 0.011; under setting [4], 1.05 ± 0.015; under setting [5], 0.991 ± 0.0053; under setting [6], 0.9677 ± 0.004.
With `NC(N)=NCc1cccc(I)c1` [m-Iodobenzylguanidine hemisulfate], the normalised cell viability turned out to be 0.995 ± 0.007 under setting [1]; 0.879 ± 0.034 under setting [2]; 0.9907 ± 0.0076 under setting [3]; 0.992 ± 0.095 under setting [4]; 0.9797 ± 0.0081 under setting [5]; 0.995 ± 0.0046 under setting [6].
Take `N#CC(=C(/N)Sc1ccccc1N)/C(C#N)=C(/N)Sc1ccccc1N`: the normalised cell viability came to 1.023 ± 0.0058 under setting [1]; 0.951 ± 0.011 under setting [2]; 0.901 ± 0.2 under setting [3]; 1.07 under setting [4]; 1.004 ± 0.01 under setting [5]; 0.992 ± 0.011 under setting [6].
As to `NS(=O)(=O)c1cccc2c1c([N+](=O)[O-])cc1nc(O)c(O)nc12` [NBQX disodium], the normalised cell viability reads like this: under setting [1], 0.994 ± 0.006; under setting [2], 0.994 ± 0.014; under setting [3], 1.01 ± 0.011; under setting [4], 1.03 ± 0.081; under setting [5], 1.01; under setting [6], 1.01 ± 0.011.
As to `N#CC(=Cc1ccc(O)c(O)c1)C(=O)NCc1ccccc1` [AG-490 (Tyrphostin B42)], the normalised cell viability was 0.981 ± 0.016 under setting [1]; 1.02 ± 0.01 under setting [2]; 0.974 ± 0.011 under setting [3]; 0.995 ± 0.03 under setting [4]; 0.991 ± 0.013 under setting [5]; 0.996 ± 0.013 under setting [6].
Consider `N#CC(=Cc1ccc(O)c(O)c1)C(=O)NCc1ccccc1`, for which the normalised cell viability amounted to 1.01 under setting [1]; 1.04 under setting [2]; 1.01 ± 0.01 under setting [3]; 1.03 ± 0.02 under setting [4]; 1 ± 0.0085 under setting [5]; 1.003 ± 0.0058 under setting [6].
With `COc1ccccc1-c1cc(Nc2cccc(CS(N)(=O)=O)c2)ncn1`, the normalised cell viability reads like this: under setting [1], 1.013 ± 0.0058; under setting [2], 1.09 ± 0.025; under setting [3], 1.02 ± 0.015; under setting [4], 1.05 ± 0.01; under setting [5], 0.99967 ± 0.00058; under setting [6], 0.9673 ± 0.0087.
For the compound `CC1(COc2ccc3c(c2)ncn3-c2ccc3cccc(N4CCC(N)CC4)c3n2)COC1`, the normalised cell viability came to 1.083 ± 0.0058 under setting [1]; 1.09 ± 0.02 under setting [2]; 1.083 ± 0.0058 under setting [3]; 1.09 ± 0.032 under setting [4]; 0.9813 ± 0.0064 under setting [5]; 0.441 ± 0.03 under setting [6].
As to `C[C@@H](Oc1cc(-n2cnc3ccc(CN4CCN(C)CC4)cc32)sc1C(N)=O)c1ccccc1C(F)(F)F`, the normalised cell viability turned out to be 0.336 ± 0.032 under setting [1]; 0.478 ± 0.045 under setting [2]; 0.563 ± 0.052 under setting [3]; 0.731 ± 0.078 under setting [4]; 0.0518 ± 0.0027 under setting [5]; 0.0552 ± 0.0035 under setting [6].
In the case of `CNCC[C@H](Oc1cccc2ccccc12)c1cccs1` [Duloxetine HCl], the normalised cell viability was 0.9993 ± 0.0011 under setting [1]; 0.9847 ± 0.0032 under setting [2]; 1.01 ± 0.018 under setting [3]; 0.98 ± 0.015 under setting [4]; 0.999 ± 0.0095 under setting [5]; 0.9923 ± 0.0083 under setting [6].
Regarding `NC(N)=NCCNS(=O)(=O)c1cccc2cnccc12` [HA-1004 hydrochloride], the normalised cell viability is 0.975 ± 0.013 under setting [1]; 0.956 ± 0.038 under setting [2]; 0.972 ± 0.016 under setting [3]; 1.03 ± 0.01 under setting [4]; 0.9777 ± 0.0049 under setting [5]; 0.9853 ± 0.0075 under setting [6].
On to `CNC(=O)[C@H]1O[C@@H](n2cnc3c(NCc4cccc(I)c4)ncnc32)[C@H](O)[C@@H]1O`, for which the normalised cell viability under setting [1] is 0.982 ± 0.008; the normalised cell viability under setting [2] is 0.988 ± 0.02; the normalised cell viability under setting [3] is 0.975 ± 0.017; the normalised cell viability under setting [4] was 1 ± 0.067; the normalised cell viability under setting [5] came to 0.991 ± 0.0095; the normalised cell viability under setting [6] was determined as 0.9897 ± 0.0049.
Regarding `C=C[C@H]1CN2CC[C@H]1C[C@@H]2[C@@H](O)c1ccnc2ccc(OC)cc12` [Quinidine sulfate], the normalised cell viability stood at 1 ± 0.013 under setting [1]; 1.04 ± 0.032 under setting [2]; 0.83 ± 0.34 under setting [3]; 1.09 ± 0.01 under setting [4]; 1.01 under setting [5]; 1.05 ± 0.032 under setting [6].
As for `O=C1CCC(N2C(=O)c3ccccc3C2=O)C(=O)N1` (racemic) [(±)-Thalidomide], the normalised cell viability is 0.972 ± 0.0017 under setting [1]; 0.9803 ± 0.007 under setting [2]; 1.01 ± 0.026 under setting [3]; 0.9877 ± 0.0025 under setting [4]; 0.9757 ± 0.0031 under setting [5]; 0.9767 ± 0.0049 under setting [6].

(Values after the supplement of paper PMC8285479.)
